Experimental findings from patent US20120178908A1 (Novo Nordisk, published 2012) are described below.

Sequences and labels used below:
B1: mAb 0012-(HC-L9-TF)2;LC2 (other)
heavy chain-linker-TF: EVKLLESGGGLVQPGGSLKLSCAASGFDFSRYWMTWVRQAPGKGLEWIGEINPDSSTINYTPSLKDKFIISRDNAKNTLYLQMSEVRSEDTALYYCASGVFTSWGQGTLVTVSAASTKGPSVFPLAPCSRSTSESTAALGCLVKDYFPEPVTVSWNSGALTSGVHTFPAVLQSSGLYSLSSVVTVPSSSLGTKTYTCNVDHKPSNTKVDKRV[human IgG4 Fc with S228P (EU numbers) omitted]GGGGSGGGGSGGGGSGGGGSGGGGSGSGGGGSGGGGSGGGGSSGTTNTVAAYNLTWKSTNFKTILEWEPKPVNQVYTVQISTKSGDWKSKCFYTTDTECDLTDEIVKDVKQTYLARVFSYPAGNVESTGSAGEPLYENSPEFTPYLETNLGQPTIQSFEQVGTKVNVTVEDERTLVRRNNTFLSLRDVFGKDLIYTLYYWKSSSSGKKTAKTNTNEFLIDVDKGENYCFSVQAVIPSRTVNRKSTDSPVECMGQEKGEFRE
light chain: DVVMTQTPLSLPVSLGDQASISCRSSQSLVHRNGNTYFHWCLQKPGQSPKLLIYKVSNRFSGVPDRFSGSGSGTDFTLKISRVEAEDLGVYFCSQSTHVPYTFGGGTKLEIKRTVAAPSVFIFPPSDEQLKSGTASVVCLLNNFYPREAKVQWKVDNALQSGNSQESVTEQDSKDSTYSLSSTLTLSKADYEKHKVYACEVTHQGLSSPVTKSFNRGEC
B2: mAb 0012-(LC-L0-TF)2;HC2 (other)
light chain-TF, no linker: DVVMTQTPLSLPVSLGDQASISCRSSQSLVHRNGNTYFHWCLQKPGQSPKLLIYKVSNRFSGVPDRFSGSGSGTDFTLKISRVEAEDLGVYFCSQSTHVPYTFGGGTKLEIKRTVAAPSVFIFPPSDEQLKSGTASVVCLLNNFYPREAKVQWKVDNALQSGNSQESVTEQDSKDSTYSLSSTLTLSKADYEKHKVYACEVTHQGLSSPVTKSFNRGECSGTTNTVAAYNLTWKSTNFKTILEWEPKPVNQVYTVQISTKSGDWKSKCFYTTDTECDLTDEIVKDVKQTYLARVFSYPAGNVESTGSAGEPLYENSPEFTPYLETNLGQPTIQSFEQVGTKVNVTVEDERTLVRRNNTFLSLRDVFGKDLIYTLYYWKSSSSGKKTAKTNTNEFLIDVDKGENYCFSVQAVIPSRTVNRKSTDSPVECMGQEKGEFRE
heavy chain: EVKLLESGGGLVQPGGSLKLSCAASGFDFSRYWMTWVRQAPGKGLEWIGEINPDSSTINYTPSLKDKFIISRDNAKNTLYLQMSEVRSEDTALYYCASGVFTSWGQGTLVTVSAASTKGPSVFPLAPCSRSTSESTAALGCLVKDYFPEPVTVSWNSGALTSGVHTFPAVLQSSGLYSLSSVVTVPSSSLGTKTYTCNVDHKPSNTKVDKRV[human IgG4 Fc with S228P (EU numbers) omitted]
B3: mAb 0012-(LC-L1-TF)2;HC2 (other)
light chain-linker-TF: DVVMTQTPLSLPVSLGDQASISCRSSQSLVHRNGNTYFHWCLQKPGQSPKLLIYKVSNRFSGVPDRFSGSGSGTDFTLKISRVEAEDLGVYFCSQSTHVPYTFGGGTKLEIKRTVAAPSVFIFPPSDEQLKSGTASVVCLLNNFYPREAKVQWKVDNALQSGNSQESVTEQDSKDSTYSLSSTLTLSKADYEKHKVYACEVTHQGLSSPVTKSFNRGECGSSGTTNTVAAYNLTWKSTNFKTILEWEPKPVNQVYTVQISTKSGDWKSKCFYTTDTECDLTDEIVKDVKQTYLARVFSYPAGNVESTGSAGEPLYENSPEFTPYLETNLGQPTIQSFEQVGTKVNVTVEDERTLVRRNNTFLSLRDVFGKDLIYTLYYWKSSSSGKKTAKTNTNEFLIDVDKGENYCFSVQAVIPSRTVNRKSTDSPVECMGQEKGEFRE
heavy chain: B2 heavy chain

One test deals with T1, TLT-1 18-188 relipidated in 20:80 PS:PC vesicles (human, UniProt Q86YW5 18-188).
T1 sequence: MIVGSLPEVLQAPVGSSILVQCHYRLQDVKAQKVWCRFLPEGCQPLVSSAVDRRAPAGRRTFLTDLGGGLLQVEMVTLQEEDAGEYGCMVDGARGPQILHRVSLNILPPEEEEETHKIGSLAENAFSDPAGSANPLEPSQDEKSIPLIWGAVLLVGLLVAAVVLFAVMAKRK
In words: cell-based or functional assay.
Turning to B1, the “FVII-mediated FXa generation % Activity lipidated TLT-1” value came to 64% and the “FVIIa-mediated FXa generation % Activity lipidated TLT-1” value turned out to be 88%.
The corresponding values for B2 are 20% and 52%.
As to B3, the “FVII-mediated FXa generation % Activity lipidated TLT-1” value was determined as 32% and the “FVIIa-mediated FXa generation % Activity lipidated TLT-1” value amounted to 66%.

A further test concerns the target T2, TLT-1 receptor on the surface of activated human platelets (human, UniProt Q86YW5 16-311).
T2 sequence: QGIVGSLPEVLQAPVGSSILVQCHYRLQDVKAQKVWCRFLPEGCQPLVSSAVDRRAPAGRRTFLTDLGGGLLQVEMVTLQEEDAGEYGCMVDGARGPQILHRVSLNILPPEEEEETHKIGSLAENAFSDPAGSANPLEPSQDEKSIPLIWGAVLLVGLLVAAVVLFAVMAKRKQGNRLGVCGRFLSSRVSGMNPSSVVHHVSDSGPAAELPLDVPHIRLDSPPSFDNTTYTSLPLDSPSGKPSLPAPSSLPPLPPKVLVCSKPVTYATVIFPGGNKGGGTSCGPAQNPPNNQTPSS
In words: cell-based or functional assay.
B1: the “FVII-mediated FXa generation % Activity activated plts (n 1)” value is 23% and the “FVIIa-mediated FXa generation % Activity activated plts (n 1)” value was 23%.
On to B2, for which the “FVII-mediated FXa generation % Activity activated plts (n 1)” value worked out at 6% and the “FVIIa-mediated FXa generation % Activity activated plts (n 1)” value was 15%.
B3: the “FVII-mediated FXa generation % Activity activated plts (n 1)” value was 13% and the “FVIIa-mediated FXa generation % Activity activated plts (n 1)” value was 18%.
